# From PubChem BioAssay AID686970 (National Center for Advancing Translational Sciences (NCATS), 2013)
# About 6,000 (1.7%) of roughly 360,000 compounds were called active. Inconclusive results, whose numbers are uncertain, are shown with a selection of clear calls. Calls follow the shape of the dose curve; as a rule, active = well fitted cell-killing curve with a large enough effect; inconclusive = small, poorly fitted or top-dose-only effect, or effect the other way; inactive = flat fitted curve, though single readings scatter. No potency is given beside an inconclusive call; the fits are too rough.
# Experiment: qHTS for induction of synthetic lethality in tumor cells producing 2HG: qHTS for the HT-1080-NT fibrosarcoma cell line;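 also: NT is the 2HG producing partner of a matched IDH1 knockdown line; nearly all actives have a fitted effect of over 55% in size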;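 as to activity, negative = less viability: 0% = DMSO-treated cells and -100% = media-only wells without cells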
# Settings: HT-1080-NT fibrosarcoma viability, CellTiter-Glo ATP luminescence, 48 h; activity, negative = less viability: at 46.1 µM (top of the series) unless noted
# In short: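 Read-out is CellTiter-Glo luminescence after 10 minutes at room temperature, following 48 hours' compound treatment of HT-1080-NT cells (750 cells/well, RPMI, 5% FBS, 37 degrees C).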
# Potency is read from the fitted curve at half-maximal effect; tags tell the direction and shape of the fitted curve.
Structure (SMILES),Potency,"activity, negative = less viability"
COc1cc(/C=N/NC(=O)c2c(C)nnn2-c2nonc2N)ccc1O,"inconclusive [cytotoxic, single point]",
CCc1ccc2c(Cl)c(C(=O)N/N=C/c3c[nH]c4ccccc34)sc2c1,"inconclusive [cytotoxic, single point]",
CCc1cccc2c(C(=O)COC(=O)c3c(C)noc3C)c[nH]c12,"inconclusive [cytotoxic, single point]",
CCC(CC)COC(=O)C1=C(C)NC(=O)NC1c1cc(OC)ccc1OC (stereo not drawn),"inconclusive [cytotoxic, single point]",
COc1cc(C=NNC(=O)Cn2nc(C)cc2C)ccc1OC(=O)C1CC1,inactive,
CCCCC(=O)N(C)c1c(CC)nc2c(OCc3ccc(C(F)(F)F)cc3)cccn12,,inconclusive: -44.4%
Cc1cccc2cc(C#N)c(NCCNC(=O)c3ccccc3)nc12,inactive,
COc1ccc(N(C(=O)CCl)C(C(=O)NCCc2ccccc2)c2cccs2)cc1 (stereo not drawn),active: 2.06 µM,
c1ccc(Oc2c3ccccc3nc3ccccc23)cc1,"inconclusive [cytotoxic, partial curve]",
C/[N+]([O-])=C\c1ccc([N+](=O)[O-])o1,"inconclusive [cytotoxic, partial curve, poor fit]",
Brc1cccc(CN2CCCCCC2)c1,inactive,
O=C(CCl)N1c2ccccc2SCC1c1ccccc1 (stereo not drawn),active: 4.61 µM,
CCCN(CCC)CCCNC(=O)c1ccc2c(Cl)c3c(nc2c1)CCC3,"inconclusive [cytotoxic, single point]",
Cc1ccc(OCC(=O)N2CC(C)CC(C)C2)c([N+](=O)[O-])n1 (stereo not drawn),inactive,
C/C(CS(=O)(=O)c1ccc(Cl)c(Cl)c1)=N/NC(N)=S,inactive,
Cc1ncc([N+](=O)[O-])n1CCOC(=O)c1cc(Cl)cc(Cl)c1N,inactive,
N#CCc1ccc(NC(=O)c2ccc(S(=O)(=O)N3CCCC3)cc2)cc1,inactive,
COc1ccc(C(C)(O)c2nc(-c3cccc(C(F)(F)F)c3)cs2)cc1 (stereo not drawn),"inconclusive [cytotoxic, single point]",
O=C(c1cn(-c2ccccc2)nc1-c1cccs1)N1CCN(c2ccccn2)CC1,inactive,
COc1cc(-c2cc3nc(NCc4ccco4)ccn3n2)cc(OC)c1OC,"inconclusive [cytotoxic, partial curve]",
COc1ccc(/C=C2\CCc3ccccc3C2=O)cc1CN1CCOCC1,"inconclusive [cytotoxic, single point]",
O=C(NC(=S)Nc1cccc(Cl)c1N1CCCCC1)c1ccco1,active: 11.2 µM,
Cc1ccc(SCC(=O)Nc2ccc(N3CCN(C)CC3)c(F)c2)c(C)c1,"inconclusive [cytotoxic, single point]",
Cc1cc2cc3c(cc2nc1SCC(=O)N1CCOCC1)OCO3,inactive,

Structure (SMILES),Potency,"activity, negative = less viability"
COC(=O)[C@]12CCCCC=C1N(Cc1ccco1)C(=O)[C@H](CC(=O)NCc1ccc(OC)c(OC)c1)C2,,inconclusive: 30%
CCOCCOC(=O)c1[nH]c2c(c1C)C(=O)CC(c1cccs1)C2 (stereo not drawn),active: 0.461 µM,
Oc1c(C(c2ccccc2Cl)N2CCCC2)ccc2cccnc12 (stereo not drawn),"inconclusive [cytotoxic, partial curve]",
Cc1ccc(-c2cc(C(=O)N/N=C/c3c[nH]c4ccccc34)[nH]n2)cc1,"inconclusive [cytotoxic, full curve]",
COc1ccccc1N1CCN(C(=O)CN(Cc2ccccc2)S(C)(=O)=O)CC1,inactive,
Cc1ccc(-c2nnc(-c3cccc(Br)c3)o2)cc1,inactive,
O=[N+]([O-])c1cc(S(=O)(=O)NC2=NCCCCC2)ccc1Cl,inactive,
CCCCNc1c(-c2cccc(-c3cc(C(C)=O)cs3)c2)nc2cc(C)ccn12,"inconclusive [cytotoxic, single point]",
C=CCn1c(COc2ccccc2)nnc1SCC(=O)N/N=C/c1cc(Cl)ccc1O,,inconclusive: -32.1% [cytotoxic]
O=C(COC(=O)C1CCN(S(=O)(=O)c2ccc3c(c2)OCCO3)CC1)Nc1cc(C(F)(F)F)ccc1Cl,inactive,
O=C(/C=C/c1ccccc1)NC(NC(=S)Nc1cc(Cl)ccc1Cl)C(Cl)(Cl)Cl (stereo not drawn),"inconclusive [cytotoxic, single point]",
CCCCC[C@@H](C)N1C[C@H](COCc2ccccc2)Oc2cc(N3CC[C@H](O)C3)ccc2S1(=O)=O,"inconclusive [cytotoxic, single point]",
Cc1cc(C)n(-c2nnc(C)n2N)n1,,inconclusive: 30.5%
Cn1nc(C(=O)Nc2c(-c3ccccc3)nc3sccn23)c2ccccc2c1=O,inactive,
O=C(CSc1nc2ccc(Nc3nc(N4CCOCC4)nc(N4CCOCC4)n3)cc2s1)Nc1ccccc1Cl,"inconclusive [cytotoxic, single point]",
COc1ccccc1-c1cc2nc(NCCOc3ccccc3)ccn2n1,,inconclusive: -31.4%
O=C(/C=C/c1ccc2c(c1)OCO2)NCCS(=O)(=O)N1CCN(c2ccccc2)CC1,"inconclusive [cytotoxic, partial curve]",
CCN1C(=O)c2ccccc2S(=O)(=O)c2ccc(C(=O)N3CCOCC3)cc21,inactive,
CCCCNC(=S)NNc1c(Cl)cc(Cl)cc1Cl,"inconclusive [cytotoxic, single point]",
CCOc1nc(OCC)c2[nH]c(C(=O)O)c(Br)c2n1,inactive,
CC1CCCN(c2ccc([N+](=O)[O-])cc2C(=O)c2ccccc2)C1 (stereo not drawn),"inconclusive [cytotoxic, full curve]",
C=CCn1c2ccccc2c2nnc(SCCCn3c(=O)[nH]c4ccccc43)nc21,"inconclusive [cytotoxic, partial curve]",
CC(C(=O)c1ccc(-c2ccccc2)cc1)[n+]1cccc(NC(=O)c2ccccc2)c1 (stereo not drawn),"inconclusive [cytotoxic, single point]",
CC1(C)S[C@@H]2[C@H](NC(=O)C(NC(=O)N3CCNC3=O)c3ccccc3)C(=O)N2[C@H]1C(=O)O (stereo partly drawn),inactive,
